Holding throughout (experiment): glycan array binding signal (z-score within array); higher = stronger binding
What all share (conditions): glycan notation: IUPAC condensed, linker removed

Assay [1] concerns the target Gal(b1-4)GlcNAc(b1-2)Man(a1-6)[Man(a1-3)]Man(b1-4)GlcNAc(b1-4)GlcNAc. The method in brief: (§1)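 The binding signal is a Z-score computed within each array. Data were drawn from 3228 arrays in the Consortium for Functional Glycomics database, restricted to those with a known protein sequence. Scores were averaged over arrays of the same protein sequence at different concentrations or buffers, and over linkers, and negative values can be taken as non-binding.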

The target of assay [2] is Gal(b1-4)GlcNAc(b1-2)[Gal(b1-4)GlcNAc(b1-4)]Man(a1-3)[Gal(b1-4)GlcNAc(b1-2)Man(a1-6)]Man(b1-4)GlcNAc(b1-4)GlcNAc. In short, it runs like this: as §1
In assay [3] the target is Gal(b1-4)GlcNAc(b1-2)[Gal(b1-4)GlcNAc(b1-4)]Man(a1-3)[Gal(b1-4)GlcNAc(b1-2)[Gal(b1-4)GlcNAc(b1-6)]Man(a1-6)]Man(b1-4)GlcNAc(b1-4)GlcNAc. In short, it runs like this:
as §1

Assay [4] has as its target Gal(b1-4)GlcNAc(b1-2)[Gal(b1-4)GlcNAc(b1-4)]Man(a1-3)[GlcNAc(b1-4)][Gal(b1-4)GlcNAc(b1-2)Man(a1-6)]Man(b1-4)GlcNAc(b1-4)GlcNAc. In short, it runs like this:
as §1

The target of assay [5] is Gal(b1-4)GlcNAc(b1-2)[Gal(b1-4)GlcNAc(b1-4)]Man(a1-3)[GlcNAc(b1-4)][Gal(b1-4)GlcNAc(b1-2)[Gal(b1-4)GlcNAc(b1-6)]Man(a1-6)]Man(b1-4)GlcNAc(b1-4)GlcNAc. The method in brief:
as §1

In assay [6] the target is Gal(b1-4)GlcNAc(b1-2)[Gal(b1-4)GlcNAc(b1-6)]Man(a1-6)[Gal(b1-4)GlcNAc(b1-2)Man(a1-3)]Man(b1-4)GlcNAc(b1-4)GlcNAc. The method in brief:
as §1

The target in assay [7] is Gal(b1-4)GlcNAc(b1-2)[Gal(b1-4)GlcNAc(b1-6)]Man(a1-6)[Gal(b1-4)GlcNAc(b1-2)Man(a1-3)]Man(b1-4)GlcNAc(b1-4)[Fuc(a1-6)]GlcNAc. The method in brief:
as §1

Assay [8] concerns the target Gal(b1-4)GlcNAc(b1-2)[Gal(b1-4)GlcNAc(b1-6)]Man(a1-6)[GlcNAc(b1-4)][Gal(b1-4)GlcNAc(b1-2)Man(a1-3)]Man(b1-4)GlcNAc(b1-4)GlcNAc. In short, it runs like this: as §1
Assay [9] deals with Gal(b1-4)GlcNAc(b1-2)[Gal(b1-4)GlcNAc(b1-6)]Man(a1-6)[GlcNAc(b1-4)][Gal(b1-4)GlcNAc(b1-2)[Gal(b1-4)GlcNAc(b1-4)]Man(a1-3)]Man(b1-4)GlcNAc(b1-4)[Fuc(a1-6)]GlcNAc. In short, it runs like this: as §1
For assay [10], the target named is Gal(b1-4)GlcNAc(b1-3)Gal(b1-3)GalNAc. In short, it runs like this:
as §1

Assay [11] deals with Gal(b1-4)GlcNAc(b1-3)Gal(b1-3)GlcNAc. In short, it runs like this: as §1
The target of assay [12] is Gal(b1-4)GlcNAc(b1-3)Gal(b1-4)Glc. In short, it runs like this: as §1
In assay [13] the target is Gal(b1-4)GlcNAc(b1-3)Gal(b1-4)GlcNAc. The method in brief: as §1
The target of assay [14] is Gal(b1-4)GlcNAc(b1-3)Gal(b1-4)GlcNAc(b1-2)Man(a1-3)[Gal(b1-4)GlcNAc(b1-3)Gal(b1-4)GlcNAc(b1-2)Man(a1-6)]Man(b1-4)GlcNAc(b1-4)GlcNAc. The method in brief: as §1
Assay [15] deals with Gal(b1-4)GlcNAc(b1-3)Gal(b1-4)GlcNAc(b1-2)Man(a1-3)[Gal(b1-4)GlcNAc(b1-3)Gal(b1-4)GlcNAc(b1-2)Man(a1-6)]Man(b1-4)GlcNAc(b1-4)[Fuc(a1-6)]GlcNAc. In short, it runs like this:
as §1

The target of assay [16] is Gal(b1-4)GlcNAc(b1-3)Gal(b1-4)GlcNAc(b1-2)[Gal(b1-4)GlcNAc(b1-3)Gal(b1-4)GlcNAc(b1-6)]Man(a1-6)[Gal(b1-4)GlcNAc(b1-3)Gal(b1-4)GlcNAc(b1-2)Man(a1-3)]Man(b1-4)GlcNAc(b1-4)GlcNAc. The method in brief: as §1
The target of assay [17] is Gal(b1-4)GlcNAc(b1-3)Gal(b1-4)GlcNAc(b1-2)[Gal(b1-4)GlcNAc(b1-3)Gal(b1-4)GlcNAc(b1-6)]Man(a1-6)[Gal(b1-4)GlcNAc(b1-3)Gal(b1-4)GlcNAc(b1-2)Man(a1-3)]Man(b1-4)GlcNAc(b1-4)[Fuc(a1-6)]GlcNAc. In short, it runs like this: as §1
Assay [18] concerns the target Gal(b1-4)GlcNAc(b1-3)Gal(b1-4)GlcNAc(b1-3)Gal(b1-4)GlcNAc. The method in brief:
as §1

Consider one molecule from the supplement of paper PMC8728848.

The other results are listed elsewhere or left out.

B1: PX15618B-bfa-464-25-464 (Bacteroides fragilis) (protein)
chain: DQEPPLYVNENDIFTSPTRIEATLNGLYAAIKNTGTKSLMGGKSYLVFDNRGDDVINISNNLVTLFNTYNMNVGITDAENADTWTYAYLAINKVNTFLQSLEGAREVAGENYDRYVQEAKFVRALAYYYLNNLYPTPYSVNPDAKSVPLRLTAEAGTENNNMPRSTVKQIYEHILSDLENISALDTEVNTYTGVTHATQAAANMLKMRVYMAMNEWDKAITAGELVTGYSLPEDVTLIYKAPYFSQESIFSLPMADTNIPNTQQSLAEYYYDGKIMLIDTKSGIMSKPDYSLATDKRIIAFKGEKDLLMKFTDAKTKLQWVPIFRYAETLLDLAECYANKAGGEATAKSLLKQVRGRSVDAATDPLNIDNLSGDALKEAIYNEKRLEFIGEGIRGIDIMRRGEHFIKVGENETINVGPSDEKYTWPIPQVELLLNKDINK
As to B1, the “glycan array binding signal (z-score)” value in assay [1] was 0.248; in [2], 0.511; in assay [3], -0.527; in [4] it was 0.441; in assay [5], -0.722; in [6], 2.66. Further, the “glycan array binding signal (z-score)” value in assay [7] is 1.01; in assay [8] it was -0.159; in assay [9], -0.06; in assay [10], -0.13; in assay [11] it was -0.62; in [12], -0.611. Further, the “glycan array binding signal (z-score)” value in [13] is 0.342; in assay [14] it was 0.341; in assay [15], -0.332; in assay [16], 0.039; in [17], 1.2; in assay [18] it was -0.187.
